# Test results taken from the supplement of paper PMC4166925.
# ± gives the standard deviation of the averaged measurements. The full ranking holds about 33,000 sequences; the median of “E-score (dimensionless, -0.5 to 0.5)” is about -0.046, and the highest 2% start at about 0.36. The list shows a part of the results.
# System: T1, SpTbr T-box DNA-binding domain (GST fusion)
# T1 sequence: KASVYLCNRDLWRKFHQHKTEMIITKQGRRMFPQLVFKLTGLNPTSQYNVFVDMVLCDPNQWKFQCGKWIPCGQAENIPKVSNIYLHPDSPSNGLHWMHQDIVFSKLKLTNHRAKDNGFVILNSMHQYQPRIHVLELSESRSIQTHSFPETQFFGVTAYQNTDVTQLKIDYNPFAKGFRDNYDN
# Test: PBM E-score of 8-mer (E-score (dimensionless, -0.5 to 0.5)); Tbr is Tbrain of the sea star Patiria miniata (Pm) or the sea urchin Strongylocentrotus purpuratus (Sp); higher = stronger binding preference; most listed sequences are background and not binding sites
# Conditions: the construct has about 5 more residues each side
# Procedure, shortened: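 Universal Agilent oligonucleotide arrays, made double-stranded by primer extension, were incubated with 200 nM GST-fused Tbr T-box DNA-binding domain in PBS (pH 7.5). The protein was expressed in BL21 E. coli at 20 °C and purified by glutathione affinity chromatography. After scanning and quantification, the Universal PBM Analysis Suite assigned an enrichment E-score to each ungapped 8-mer, averaged over duplicate arrays.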
row,Sequence,PBM E-score of 8-mer
1,AAATGGCA,0.0899 ± 0.017
2,GTAGTATA,-0.109 ± 0.025
3,AAGGCTTA,-0.0667 ± 0.038
4,CATGCTCG,-0.0619 ± 0.081
5,CAAAGGGC,-0.161 ± 0.046
6,ATGGGACG,-0.0461 ± 0.012
7,ATGTTAAT,0.0604 ± 0.061
8,GAGGGACA,0.118 ± 0.045
9,ATTCTAAA,-0.215 ± 0.0057
10,CCAGCCGC,-0.205 ± 0.052
11,CCATTGAC,-0.0228 ± 0.064
12,AGATTAAA,-0.143 ± 0.14
13,TCCGTTCA,-0.018 ± 0.06
14,AGAGTACG,-0.0341 ± 0.067
15,AACGTAAT,-0.129 ± 0.0037
16,AGGCTCGC,0.0433 ± 0.044
17,CGAAGGAA,-0.0832 ± 0.033
18,ATCGGAGC,-0.123 ± 0.085
19,ATAAGGGA,-0.205 ± 0.015
20,GCCCTGGA,-0.24 ± 0.0052
21,CCCGATGC,-0.16 ± 0.065
22,ACACAAAC,0.108 ± 0.077
23,ACACCAGT,0.296 ± 0.033
24,AGAACCCA,-0.208 ± 0.071
25,GAGGACCA,-0.1805 ± 0.00028

row,Sequence,PBM E-score of 8-mer
1,TATTTGGA,-0.13 ± 0.0051
2,GGCTATGA,-0.0251 ± 0.045
3,CATAGGAA,-0.314 ± 0.027
4,CCCAGACA,0.0295 ± 0.036
5,CCACGAGA,-0.184 ± 0.043
6,AGTCCTCC,-0.266 ± 0.019
7,GCACTGAC,0.0176 ± 0.026
8,CGCGCAAC,0.173 ± 0.066
9,ATGGACCA,-0.214 ± 0.092
10,AATCTAAT,-0.123 ± 0.051
11,CGGCGGAA,-0.0399 ± 0.0019
12,GTGTGTTA,0.318 ± 0.021
13,ATCCGTGC,-0.132 ± 0.004
14,CTAGAGTA,-0.19 ± 0.021
15,ATCAATAG,-0.171 ± 0.053
16,CTCCCTCA,0.0512 ± 0.04
17,AACCCTTC,-0.185 ± 0.03
18,AATTCGTC,0.0742 ± 0.012
19,AAATGGGG,-0.142 ± 0.047
20,CCACGTTA,0.135 ± 0.014
21,ATAGGACA,-0.22 ± 0.018
22,ACTATCCA,-0.21 ± 0.023
23,CGCTGAGC,0.0396 ± 0.0024
24,CCTACGAC,-0.191 ± 0.027
25,TCGTAAAA,-0.0816 ± 0.072

row,Sequence,PBM E-score of 8-mer
1,ACACGGCC,0.0124 ± 0.046
2,CCAACCAA,-0.219 ± 0.0053
3,CAGCCCTC,-0.14 ± 0.053
4,AGGCGGTG,-0.0537 ± 0.076
5,ACTAGCCG,0.07 ± 0.092
6,CCTCTGCA,-0.1407 ± 0.00062
7,CTATGGCA,0.121 ± 0.042
8,TCATGCCA,0.103 ± 0.0093
9,CTCTCCAA,-0.105 ± 0.069
10,ATGGCACA,0.123 ± 0.011
11,CCGTTGAG,-0.204 ± 0.035
12,TCTTTTAA,0.0751 ± 0.08
13,CCGCGGGA,-0.0784 ± 0.0089
14,ACCGTAAG,-0.0128 ± 0.13
15,AAGTCTCG,0.114 ± 0.061
16,CAAAAGTA,-0.211 ± 0.036
17,ACTAACTA,0.0825 ± 0.013
18,CCGGAGGA,-0.234 ± 0.04
19,ATGGGCTA,-0.176 ± 0.062
20,AGTTGGGC,-0.0949 ± 0.04
21,GGTTTTTA,-0.261 ± 0.1
22,GACCGAAA,-0.0112 ± 0.019
23,ACAATAAA,-0.079 ± 0.077
24,CCCGTTAA,0.199 ± 0.032
25,GCTCGAGA,-0.0915 ± 0.021

row,Sequence,PBM E-score of 8-mer
1,ACGACGCT,0.0875 ± 0.036
2,ATAGCTAC,-0.238 ± 0.072
3,AACATTGG,0.05132 ± 0.00013
4,AGACATCA,-0.214 ± 0.003
5,CAGGGTTA,-0.0854 ± 0.0056
6,ACTGTCAC,0.35403 ± 0.00029
7,CGACGTCC,-0.196 ± 0.0025
8,GCTTATGA,-0.0928 ± 0.0089
9,GTTGTACA,0.0353 ± 0.025
10,GGCCATGA,-0.184 ± 0.0099
11,GCCGTTGA,0.00927 ± 0.026
12,CGGGGTCC,-0.256 ± 0.015
13,GCTCGATA,-0.079 ± 0.09
14,AGATCTCA,0.098 ± 0.054
15,GAGAACGA,0.207 ± 0.0027
16,AAGGGTCG,-0.186 ± 0.013
17,GTAGTGAC,0.241 ± 0.024
18,CGCATCCA,-0.213 ± 0.057
19,AGGCATTA,-0.0763 ± 0.073
20,CATCGACG,0.0886 ± 0.011
21,GGCTGTAA,0.0224 ± 0.033
22,TCTCTGCA,-0.159 ± 0.018
23,CCACATCG,0.111 ± 0.055
24,CGGGGATA,-0.111 ± 0.025
25,AAGTTGTA,0.0436 ± 0.03

row,Sequence,PBM E-score of 8-mer
1,AAACAACA,0.178 ± 0.0031
2,CGATTATC,0.0463 ± 0.1
3,ACGCCACC,0.25 ± 0.0077
4,ATAATTTG,-0.204 ± 0.024
5,TCTGAAGA,-0.167 ± 0.018
6,CCTCGACA,0.26 ± 0.054
7,CTGTCAGA,0.207 ± 0.025
8,CTACAGTA,-0.105 ± 0.041
9,CTGCAATC,-0.0331 ± 0.099
10,TAAGATGA,-0.0791 ± 0.032
11,ATCCGTAG,-0.155 ± 0.032
12,GACAATAC,0.0145 ± 0.01
13,ATGGAGAA,-0.283 ± 0.043
14,AGTCCGAC,-0.216 ± 0.072
15,AGAACGGA,-0.0262 ± 0.019
16,GGAAATAC,-0.0888 ± 0.075
17,AGCGTTAC,0.0783 ± 0.08
18,CCCCAGAC,-0.0515 ± 0.0094
19,ACGCAACG,0.0373 ± 0.028
20,ATATAGAC,-0.0857 ± 0.07
21,CACCGTAA,0.169 ± 0.084
22,AGTCGTTC,0.0123 ± 0.035
23,AGATGGAT,-0.207 ± 0.014
24,ACTCAAAA,0.00976 ± 0.07
25,CACCTCGA,0.44517 ± 8.5e-05

row,Sequence,PBM E-score of 8-mer
1,CCCAGGTC,-0.167 ± 0.0099
2,ATTCTTAC,-0.196 ± 0.076
3,CCTGCGCC,-0.128 ± 0.041
4,ATTAGAGG,-0.275 ± 0.043
5,AAAACTCG,-0.0274 ± 0.059
6,TCACTGAA,0.0446 ± 0.0092
7,CATCTCTC,0.115 ± 0.056
8,GATGGCAC,0.25 ± 0.0078
9,AGTCTGAC,-0.0997 ± 0.057
10,AAAACTGA,-0.279 ± 0.033
11,GGTGGGTA,-0.0909 ± 0.041
12,CGCGACCA,0.171 ± 0.08
13,CACGATTA,0.0382 ± 0.054
14,ATCCTTCG,-0.0928 ± 0.084
15,ACTCGAAT,-0.0346 ± 0.0051
16,CGTAGCGA,-0.0174 ± 0.011
17,AGATTATA,-0.0789 ± 0.018
18,AAACACGA,0.142 ± 0.018
19,ATTCTCCG,0.00222 ± 0.13
20,CACACGAG,0.152 ± 0.0068
21,ATTTTGTA,0.0194 ± 0.069
22,TCAGCGAA,0.0544 ± 0.067
23,CAGCTTCA,0.25 ± 0.0097
24,ATTGCGGA,0.0037 ± 0.042
25,CCGCAAGG,-0.0599 ± 0.044

row,Sequence,PBM E-score of 8-mer
1,CTAACGCA,0.234 ± 0.031
2,GAGTCCAC,-0.0179 ± 0.022
3,TATGAACA,-0.0802 ± 0.022
4,GCGAGGCA,0.213 ± 0.013
5,AAGACGCT,0.0268 ± 0.03
6,ATTTAATA,0.063 ± 0.024
7,AAATGGAA,-0.103 ± 0.0085
8,AAGAAGCA,-0.223 ± 0.034
9,GCGCTACC,0.295 ± 0.0067
10,TTATCAAA,-0.0294 ± 0.071
11,CGAGAAAA,0.238 ± 0.011
12,CTAATCGC,0.173 ± 0.021
13,GTGAGGTA,0.227 ± 0.019
14,CAGCCACC,0.138 ± 0.042
15,AGTAATAT,-0.0535 ± 0.011
16,CTCAGACC,-0.248 ± 0.03
17,CACAAAAG,0.0569 ± 0.073
18,CAGGGCTC,-0.407 ± 0.071
19,CTCGGGTC,-0.0239 ± 0.0073
20,AGGAGGCC,-0.296 ± 0.029
21,GAATATAA,-0.0655 ± 0.016
22,CGGTAATA,-0.248 ± 0.019
